Source: the supplement of paper PMC5655136
Values come from read counts of a selection and are noisy.

Test system: NB7
Test: fold depletion of shRNA, plasmid library share / infected cells without Dox share (9 days) (ratio); higher = more depleted after infection (more toxic, leaky expression from a Tet-inducible vector; NB7 is a neuroblastoma line without caspase-8)
Procedure: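 Pooled lethality screen in NB7 neuroblastoma cells infected with Dox-inducible pTIP shRNA libraries. The libraries tile every 21-mer of the Venus, CD95L or CD95 ORF / 3'UTR; each hairpin is the 21-nt sense sequence + CTCGAG loop + antisense. Cells were cultured 9 days with or without 100 ng/ml Dox. shRNA representation was measured by deep sequencing of the genomic inserts, normalised to the total reads per subpool and averaged over technical replicates. Fold depletion is the plasmid library share / infected cells without Dox share (mean of 2 biological replicates), and the -Dox/+Dox share ratio is the mean of 4 replicate pairings; higher values mean more depletion (toxicity).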

[1] = shRNA pool: CD95 ORF + CD95 3'UTR + Venus libraries
[2] = shRNA pool: CD95L ORF + CD95L 3'UTR + Venus libraries
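Further: shRNA barcodes quantified by deep sequencing of PCR amplicons from cellular DNA, counts expressed as percent of each subpool, ratio averaged over two biological duplicates.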

Sequence	fold depletion of shRNA [1]	fold depletion of shRNA [2]
ATGCATTTTACTGGCTCAAAA	1.99	
ATGCCACCTACGGCAAGCTGA	1.52	3.07
ATGCCCAAGTGACTGACATCA	3.8	
ATGCCCCACTGGCAGCATCTT		4.39
ATGCCCGAAGGCTACGTCCAG	1.73	1.52
ATGCCTCTGGAATGGGAAGAC		5.58
ATGCTAAGTACCCAAATAGGA	1.33	
ATGCTCTGGCATCTAACATAT	1.39	
ATGCTTCCTGACAATCAACTC		0.603
ATGGAAAAGGAAGACTAGAGG		7.53
ATGGAAAGAAAGAAGCGTATG	1.33	
ATGGAAATATCACCAAAAAAT	0.773	
ATGGAATCATCAAGGAATGCA	1.8	
ATGGAATTGTCCTGCTTTCTG		0.786
ATGGACGAGCTGTACAAGTAA	1.29	1.5
ATGGAGGAATATGACGGAAGA		1.85
ATGGAGGATTTTTTTGCCCCT	0.62	
ATGGCAGCTTATACATAGCAA	0.765	
ATGGCCAATTCTGCCATAAGC	1.08	
ATGGCCTAATGCACCCCCAAA	1.44	
ATGGCTTAGAAGTGGAAATAA	0.987	
ATGGGAAGACACCTATGGAAT		0.756
ATGGGGATGAACCAGACTGCG	0.249	
ATGGTAAAATCATCATCTGGA	1.2	

Sequence	fold depletion of shRNA [1]	fold depletion of shRNA [2]
ATGGTCCTGCTGGAGTTCGTG	1.52	1.58
ATGGTGAGCAAGGGCGAGGAG	1.1	1.05
ATGGTGTCAATGAAGCCAAAA	1.52	
ATGGTTCTGGTTGCCTTGGTA		3.27
ATGGTTGTGACCTGAGGATTT		1.14
ATGTAAAACCTGCTACAAATG	2.95	
ATGTAAACCAAACTTTTTTTG	1.96	
ATGTAAACTGTGAAGATAGTT	1.07	
ATGTAAAGTATATGTATTTGA	0.857	
ATGTAATAAAAAGTATATGTT		0.418
ATGTAATCAGTGTATGTTAGT	1.38	
ATGTAGATATTGTGAAGTACA		0.779
ATGTAGATGTGCATTTTTGTG		0.904
ATGTAGATTGTGTGATGAAGG	6.99	
ATGTATTTGAGTGCAGAATTT	1.01	
ATGTCAACGTATCTGAGCTCT		0.776
ATGTCATGAACCCATGTTTGC	1.94	
ATGTCCAAGACACAGCAGAAC	1.13	
ATGTCCCATGTAAAACCTGCT	2.7	
ATGTCTATCCACAGGCTAACC	2.51	
ATGTCTGTAGCTCCTCAACTC		1.94
ATGTGAACACTGTGACCCTTG	1.71	
ATGTGAACATGGAATCATCAA	0.68	
ATGTGAATTTTAAGAAATAAT	0.931	

Sequence	fold depletion of shRNA [1]	fold depletion of shRNA [2]
ATGTGCATTTTTGTGAAATGA		2.33
ATGTGTATGCATTTTACTGGC	3.11	
ATGTGTATTTCCAGTGCAATT		1.52
ATGTTAGTACAAATGTCTATC	0.909	
ATGTTCAATAATGTCCCATGT	0.906	
ATGTTGACTTGAGTAAATATA	0.934	
ATGTTGTATTCAGTGAGGGTC		2.17
ATGTTTAAAATCTAGTTGGGA	0.786	
ATGTTTATGAGCCAGACAAAT		2.21
ATGTTTCAGCTCTTCCACCTA		0.972
ATGTTTGACTATTATATATGT	1.29	
ATGTTTGCAATCAAAGATGAT	1.96	
ATGTTTTCCTATAATATAATA		0.894
ATGTTTTGGGGACTCATTTCA		0.936
ATGTTTTTCATGGTTCTGGTT		1.15
ATTAAAGATCTCAAAAAAGCC	2.39	
ATTAAATGTGAATTTTAAGAA	0.739	
ATTAAATTATAATGTTTGACT	0.594	
ATTAAGATTATGCTCTGGCAT	2.86	
ATTACCCATATCCCCAGATCT		1.92
ATTACCTCTGATAATTCTAGA	1.02	
ATTACTAGAGCTTTGCCACCT	0.757	
ATTACTAGTGACTCAGAAAAT	0.762	
ATTAGCGCTGAAGAGCCAACA	5.12	
